Laboratory results: the supplement of paper PMC12217912
Some of the results follow. The full chains were built here from the parent and the listed change. Values near 0.05 are background.

B1: TEV protease; numbered along this chain (parent)
chain: MGESLFKGPRDYNPISSSICHLTNESDGHTTSLYGIGFGPFIITNKHLFRRNNGTLVVQSLHGVFKVKDTTTLQQHLVDGRDMIIIRMPKDFPPFPQKLKFREPQREERICLVTTNFQTKSMSSMVSDTSCTFPSGDGIFWKHWIQTKDGQCGSPLVSTRDGFIVGIHSASNFTNTNNYFTSVPKNFMELLTNQEAQQWVSGWRLNADSVLWGGHKVFMVKPEEPFQPVKEATQL

Variants of: B1
Experiment: raw area under fraction-flipped curve 0-4 h after induction (AUC4h, not background-subtracted), DNA-recorder readout of cleavage of the substrate (dimensionless); higher = more cleavage of the substrate by the protease variant
Details: temperature: 34 °C; time window: 0-4 h after rhamnose induction
Protocol: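 In vivo DNA recorder in E. coli TOP10(DE3) ΔrhaA at 34 °C. Each TEVp single-site mutant (parent TEVp 0) is paired with a single-site variant of the 7-mer TEVs (canonical ENLYFQ|S). The substrate sits between flexible linkers in a Bxb1-sfGFP-TEVs-SsrA fusion, so cleavage stabilises Bxb1 and speeds flipping of a recombination array, read by NGS. The value is the raw area under the fraction-flipped curve over 0-4 h after rhamnose induction (AUC4h), with ≥20 reads per time point. It is not background-subtracted; inactive controls average about 0.047.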
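Further: Bxb1 expression induced with 0.2% (w/v) L-rhamnose at OD600 near 0.5, cultures sampled hourly, flipped fraction per protease–substrate barcode pair counted by paired-end Illumina sequencing.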

## MGESLFKGPRQYNPISSSICHLTNESDGHTTSLYGIGFGPFIITNKHLFRRNNGTLVVQSLHGVFKVKDTTTLQQHLVDGRDMIIIRMPKDFPPFPQKLKFREPQREERICLVTTNFQTKSMSSMVSDTSCTFPSGDGIFWKHWIQTKDGQCGSPLVSTRDGFIVGIHSASNFTNTNNYFTSVPKNFMELLTNQEAQQWVSGWRLNADSVLWGGHKVFMVKPEEPFQPVKEATQL [D11Q]
  area with substrate ENLAFQS: 0.0855
  area with substrate ENLDFQS: 0.0625
  area with substrate ENLEFQS: 0.0511
  area with substrate ENLFFQS: 0.0787
  area with substrate ENLGFQS: 0.0364
  area with substrate ENLHFQS: 0.0696
  area with substrate ENLIFQS: 0.07
  area with substrate ENLKFQS: 0.114
  area with substrate ENLLFQS: 0.0781
  area with substrate ENLMFQS: 0.0727
  area with substrate ENLNFQS: 0.0607
  area with substrate ENLPFQS: 0.0524
  area with substrate ENLRFQS: 0.0727
  area with substrate ENLSFQS: 0.0627
  area with substrate ENLVFQS: 0.0769
  area with substrate ENLWFQS: 0.0652

## MGESLFKGPRDHNPISSSICHLTNESDGHTTSLYGIGFGPFIITNKHLFRRNNGTLVVQSLHGVFKVKDTTTLQQHLVDGRDMIIIRMPKDFPPFPQKLKFREPQREERICLVTTNFQTKSMSSMVSDTSCTFPSGDGIFWKHWIQTKDGQCGSPLVSTRDGFIVGIHSASNFTNTNNYFTSVPKNFMELLTNQEAQQWVSGWRLNADSVLWGGHKVFMVKPEEPFQPVKEATQL [Y12H]
  area with substrate ENLAFQS: 0.0652
  area with substrate ENLCFQS: 0.103
  area with substrate ENLDFQS: 0.0627
  area with substrate ENLEFQS: 0.059
  area with substrate ENLFFQS: 0.0825
  area with substrate ENLHFQS: 0.0668
  area with substrate ENLIFQS: 0.0825
  area with substrate ENLKFQS: 0.077
  area with substrate ENLMFQS: 0.0663
  area with substrate ENLNFQS: 0.0064
  area with substrate ENLPFQS: 0.063
  area with substrate ENLQFQS: 0.0729
  area with substrate ENLRFQS: 0.0805
  area with substrate ENLSFQS: 0.0629
  area with substrate ENLVFQS: 0.084
  area with substrate ENLWFQS: 0.0574

## MGESLFKGPRDKNPISSSICHLTNESDGHTTSLYGIGFGPFIITNKHLFRRNNGTLVVQSLHGVFKVKDTTTLQQHLVDGRDMIIIRMPKDFPPFPQKLKFREPQREERICLVTTNFQTKSMSSMVSDTSCTFPSGDGIFWKHWIQTKDGQCGSPLVSTRDGFIVGIHSASNFTNTNNYFTSVPKNFMELLTNQEAQQWVSGWRLNADSVLWGGHKVFMVKPEEPFQPVKEATQL [Y12K]
  area with substrate ENLAFQS: 0.0652
  area with substrate ENLCFQS: 0.0688
  area with substrate ENLDFQS: 0.0649
  area with substrate ENLEFQS: 0.0714
  area with substrate ENLFFQS: 0.0851
  area with substrate ENLHFQS: 0.0619
  area with substrate ENLIFQS: 0.0895
  area with substrate ENLKFQS: 0.0729
  area with substrate ENLLFQS: 0.0583
  area with substrate ENLMFQS: 0.0646
  area with substrate ENLNFQS: 0.0704
  area with substrate ENLPFQS: 0.062
  area with substrate ENLSFQS: 0.0668
  area with substrate ENLVFQS: 0.0632
  area with substrate ENLWFQS: 0.0658

## MGESLFKGPRDSNPISSSICHLTNESDGHTTSLYGIGFGPFIITNKHLFRRNNGTLVVQSLHGVFKVKDTTTLQQHLVDGRDMIIIRMPKDFPPFPQKLKFREPQREERICLVTTNFQTKSMSSMVSDTSCTFPSGDGIFWKHWIQTKDGQCGSPLVSTRDGFIVGIHSASNFTNTNNYFTSVPKNFMELLTNQEAQQWVSGWRLNADSVLWGGHKVFMVKPEEPFQPVKEATQL [Y12S]
  area with substrate ENLAFQS: 0.0701
  area with substrate ENLDFQS: 0.0587
  area with substrate ENLEFQS: 0.0708
  area with substrate ENLFFQS: 0.0777
  area with substrate ENLHFQS: 0.0877
  area with substrate ENLKFQS: 0.0707
  area with substrate ENLLFQS: 0.116
  area with substrate ENLMFQS: 0.0776
  area with substrate ENLNFQS: 0.0647
  area with substrate ENLPFQS: 0.0674
  area with substrate ENLSFQS: 0.0759
  area with substrate ENLTFQS: 0.0696
  area with substrate ENLWFQS: 0.0748

## MGESLFKGPRDWNPISSSICHLTNESDGHTTSLYGIGFGPFIITNKHLFRRNNGTLVVQSLHGVFKVKDTTTLQQHLVDGRDMIIIRMPKDFPPFPQKLKFREPQREERICLVTTNFQTKSMSSMVSDTSCTFPSGDGIFWKHWIQTKDGQCGSPLVSTRDGFIVGIHSASNFTNTNNYFTSVPKNFMELLTNQEAQQWVSGWRLNADSVLWGGHKVFMVKPEEPFQPVKEATQL [Y12W]
  area with substrate ENLAFQS: 0.061
  area with substrate ENLDFQS: 0.0703
  area with substrate ENLFFQS: 0.086
  area with substrate ENLHFQS: 0.0792
  area with substrate ENLIFQS: 0.0727
  area with substrate ENLKFQS: 0.0683
  area with substrate ENLLFQS: 0.0715
  area with substrate ENLNFQS: 0.0732
  area with substrate ENLPFQS: 0.0514
  area with substrate ENLQFQS: 0.0782
  area with substrate ENLRFQS: 0.0707
  area with substrate ENLSFQS: 0.0544
  area with substrate ENLWFQS: 0.0788

## MGESLFKGPRDYGPISSSICHLTNESDGHTTSLYGIGFGPFIITNKHLFRRNNGTLVVQSLHGVFKVKDTTTLQQHLVDGRDMIIIRMPKDFPPFPQKLKFREPQREERICLVTTNFQTKSMSSMVSDTSCTFPSGDGIFWKHWIQTKDGQCGSPLVSTRDGFIVGIHSASNFTNTNNYFTSVPKNFMELLTNQEAQQWVSGWRLNADSVLWGGHKVFMVKPEEPFQPVKEATQL [N13G]
  area with substrate ENLAFQS: 0.0698
  area with substrate ENLCFQS: 0.0612
  area with substrate ENLDFQS: 0.0646
  area with substrate ENLEFQS: 0.0274
  area with substrate ENLFFQS: 0.072
  area with substrate ENLHFQS: 0.0666
  area with substrate ENLKFQS: 0.0772
  area with substrate ENLLFQS: 0.103
  area with substrate ENLMFQS: 0.0744
  area with substrate ENLNFQS: 0.0667
  area with substrate ENLPFQS: 0.0554
  area with substrate ENLQFQS: 0.0729
  area with substrate ENLRFQS: 0.0641
  area with substrate ENLSFQS: 0.0737
  area with substrate ENLTFQS: 0.0711

## MGESLFKGPRDYKPISSSICHLTNESDGHTTSLYGIGFGPFIITNKHLFRRNNGTLVVQSLHGVFKVKDTTTLQQHLVDGRDMIIIRMPKDFPPFPQKLKFREPQREERICLVTTNFQTKSMSSMVSDTSCTFPSGDGIFWKHWIQTKDGQCGSPLVSTRDGFIVGIHSASNFTNTNNYFTSVPKNFMELLTNQEAQQWVSGWRLNADSVLWGGHKVFMVKPEEPFQPVKEATQL [N13K]
  area with substrate ENLAFQS: 0.0644
  area with substrate ENLCFQS: 0.0576
  area with substrate ENLDFQS: 0.062
  area with substrate ENLEFQS: 0.0682
  area with substrate ENLFFQS: 0.0791
  area with substrate ENLHFQS: 0.0716
  area with substrate ENLIFQS: 0.0657
  area with substrate ENLKFQS: 0.0666
  area with substrate ENLLFQS: 0.0652
  area with substrate ENLNFQS: 0.0615
  area with substrate ENLPFQS: 0.057
  area with substrate ENLRFQS: 0.0886
  area with substrate ENLSFQS: 0.0587
  area with substrate ENLTFQS: 0.0615
  area with substrate ENLWFQS: 0.0651

## MGESLFKGPRDYRPISSSICHLTNESDGHTTSLYGIGFGPFIITNKHLFRRNNGTLVVQSLHGVFKVKDTTTLQQHLVDGRDMIIIRMPKDFPPFPQKLKFREPQREERICLVTTNFQTKSMSSMVSDTSCTFPSGDGIFWKHWIQTKDGQCGSPLVSTRDGFIVGIHSASNFTNTNNYFTSVPKNFMELLTNQEAQQWVSGWRLNADSVLWGGHKVFMVKPEEPFQPVKEATQL [N13R]
  area with substrate ENLAFQS: 0.067
  area with substrate ENLCFQS: 0.071
  area with substrate ENLDFQS: 0.0693
  area with substrate ENLFFQS: 0.0952
  area with substrate ENLGFQS: 0.0402
  area with substrate ENLHFQS: 0.0778
  area with substrate ENLKFQS: 0.0771
  area with substrate ENLLFQS: 0.0874
  area with substrate ENLNFQS: 0.0701
  area with substrate ENLPFQS: 0.0599
  area with substrate ENLQFQS: 0.0627
  area with substrate ENLRFQS: 0.0824
  area with substrate ENLSFQS: 0.0594
  area with substrate ENLWFQS: 0.0965

## MGESLFKGPRDYNCISSSICHLTNESDGHTTSLYGIGFGPFIITNKHLFRRNNGTLVVQSLHGVFKVKDTTTLQQHLVDGRDMIIIRMPKDFPPFPQKLKFREPQREERICLVTTNFQTKSMSSMVSDTSCTFPSGDGIFWKHWIQTKDGQCGSPLVSTRDGFIVGIHSASNFTNTNNYFTSVPKNFMELLTNQEAQQWVSGWRLNADSVLWGGHKVFMVKPEEPFQPVKEATQL [P14C]
  area with substrate ENLAFQS: 0.0734
  area with substrate ENLCFQS: 0.0695
  area with substrate ENLDFQS: 0.0626
  area with substrate ENLEFQS: 0.0682
  area with substrate ENLFFQS: 0.0769
  area with substrate ENLGFQS: 0.0678
  area with substrate ENLHFQS: 0.07
  area with substrate ENLIFQS: 0.0797
  area with substrate ENLKFQS: 0.0794
  area with substrate ENLLFQS: 0.0762
  area with substrate ENLMFQS: 0.063
  area with substrate ENLNFQS: 0.0583
  area with substrate ENLRFQS: 0.0794
  area with substrate ENLSFQS: 0.0657
  area with substrate ENLVFQS: 0.0757
  area with substrate ENLWFQS: 0.0721
